# Laboratory results as given in PubChem BioAssay AID463173 (ICCB-Longwood Screening Facility, Harvard Medical School, 2010).
# The campaign covered roughly 52,000 compounds. About 4,300 (8.3%) were called active. Cut-off read from the data, not from the text of the source: active = survival mostly below about 52% (no sharp cut-off); inactive = mostly above about 56%. The list shows a part of the results.
# Test system: DeltatarO mutant
# Experiment: S. aureus survival, RN4220 and DeltatarO strains – OD600, teichoic acid synthesis inhibitors, primary screen (AID 463173)
# Conditions: S. aureus RN4220 wild type/DeltatarO growth, OD600, 18 h, active compounds read low, screened at 18.75 µg/mL (by protocol)
row,SMILES,survival
1,CCC12CN3CC(CC)(CN(C1)C3c1cc(Br)ccc1OC)C2=O (stereo not given),inactive: 88%
2,Cc1nc(-c2ccc(S(=O)(=O)N3CCN(c4ccc(F)cc4)CC3)cc2)co1,inactive: 89%
3,CC(=O)N1CCCc2cc(S(=O)(=O)Nc3ccc(C)c(F)c3)ccc21,inactive: 83%
4,CCOc1ccc(NC(=O)CN2C(=O)C3(SCC(=O)N3c3ccc(F)cc3)c3ccccc32)cc1 (stereo not given),inactive: 96%
5,COc1ccc(C2C(=O)N(C3CCC(C)CC3)CC(=O)N2CCC2=CCCCC2)cc1OC (stereo not given),active: -1%
6,COc1ccc(CNc2oc(-c3ccc(COc4ccc(OC)cc4)o3)nc2C#N)cc1,inactive: 101%
7,Cn1nnnc1SCCCNCc1cccc(OCc2ccccc2Cl)c1,inactive: 60%
8,CCOc1ccccc1NC(=O)Cn1c2ncccc2c(=O)n1-c1ccc(C)c(C)c1,inactive: 85%
9,CCc1ccc2nc(N3CCN(C(=O)C4CC4)CC3)sc2c1,inactive: 94%
10,CCN1C(=O)C(Cc2nc3ccccc3c(=O)n2-c2ccccc2)c2cc(Br)ccc21 (stereo not given),inactive: 60%
11,Cc1oc(-c2ccc(C(=O)Nc3ccccc3F)cc2)nc1COc1ccccc1,inactive: 94%
12,COc1ccc(C)cc1NC(=O)CSc1nc(=O)n(Cc2ccccn2)c2c1CCC2,inactive: 125%
13,O=C1c2ccccc2C(=O)N1CSC1=NCCS1,inactive: 81%
14,CCc1nn(CC(=O)N2CCN(c3cccc(C(F)(F)F)c3)CC2)c(=O)c2cccn12,inactive: 104%
15,CCOc1ccc2[nH]c(=O)c(CN(Cc3ccccc3)C(=O)N3CCOCC3)cc2c1,inactive: 105%
16,CC(=O)N1CCc2cc(S(=O)(=O)NC(Cc3ccccc3)C(=O)Nc3ccc(Cl)cc3)ccc21 (stereo not given),inactive: 72%
17,Cc1cc(C)c(OCC(=O)N(Cc2cccc(F)c2)Cc2ccco2)c(C)c1,inactive: 77%
18,CCOC(=O)c1ccc(NS(=O)(=O)c2ccc3[nH]c4c(c3c2)CCCCC4)cc1,inactive: 97%
19,Cc1cccc(NC(=O)Cn2c(=O)oc3cc(S(=O)(=O)NC4CCCC4)ccc32)c1,inactive: 82%
20,N#Cc1cc2cc3c(cc2nc1SCc1cccnc1)OCCO3,inactive: 86%
21,O=C(N/N=C/c1ccccc1)C(O)c1ccccc1 (stereo not given),inactive: 95%
22,Cc1cc(NC(=O)C2C3C(=O)N(CCC(C)C)C(C(=O)NC(C)(C)C)C34C=CC2(C)O4)no1 (stereo not given),inactive: 86%
23,Cc1ccc(-c2nn(-c3ccccc3)c3[nH]c(=O)c(CNCCN4CCOCC4)cc23)cc1,inactive: 115%

row,SMILES,survival
1,CCNc1nc(NC(C)C)nc(C(=O)O)n1,inactive: 94%
2,CCN(CCCNC(=O)c1cc(Nc2ccccc2OC)nc2ccccc12)c1cccc(C)c1,inactive: 79%
3,COc1ccc(-c2noc(C3CC(=O)N(c4ccccc4)C3)n2)c(OC)c1 (stereo not given),inactive: 101%
4,COc1ccc(OC)c(CCNC(=O)c2c3c(nc4ccccc24)C(=O)N(C2CCCCC2)C3)c1,inactive: 57%
5,Cc1cc(C)c(NC(=O)COc2ccc3c(C)cc(=O)oc3c2)c(C)c1,inactive: 72%
6,O=C(CSc1nc2c([nH]c3ccccc32)c(=O)n1-c1ccc(Cl)cc1)N1CCCC1,inactive: 86%
7,O=S(=O)(NCC1OCCc2ccccc21)c1ccccc1 (stereo not given),inactive: 91%
8,COc1ccccc1-c1nnn(CC#N)n1,inactive: 100%
9,O=S(=O)(NCC(Nc1ccc(Cl)cc1)c1ccccc1)c1ccccc1 (stereo not given),inactive: 66%
10,COc1ccc(-c2cn3nc(SCC(=O)Nc4ccc(C)c(Cl)c4)ccc3n2)cc1,inactive: 94%
11,COC(=O)c1ccc(NC(=O)CN2C(=O)c3cccc4cccc2c34)cc1,inactive: 76%
12,Cc1ccc(NC(c2ccc(Cl)cc2)c2nnc(-c3cccc(F)c3)o2)cc1C (stereo not given),inactive: 90%
13,COC(=O)CCNC(=O)N1CCN(c2nnc(C)c3c(C)n(-c4ccc(Cl)cc4)nc23)CC1,inactive: 96%
14,CC1CCN(c2oc(/C=C/c3ccc(F)cc3)nc2C#N)CC1,inactive: 67%
15,CCN(CC)c1ccc2c(c1)OC(N)=C(C#N)C2c1cccc(F)c1 (stereo not given),active: 2%
16,CCOc1ccc(NC(=O)c2cc(S(=O)(=O)N3CCOCC3)ccc2F)cc1,inactive: 89%
17,CCCOC(=O)c1ccc(Cn2nnc3sc4c(c3c2=O)CCC(C)C4)cc1 (stereo not given),inactive: 79%
18,COc1ccccc1CNC(=O)c1cnc(N2CCCC2)nc1C,inactive: 113%
19,CCc1c(C)sc2c1CCN(C(=O)Nc1ccc(F)c(Cl)c1)C2c1ccc(F)cc1 (stereo not given),active: 46%
20,CCOc1ccc(-c2nc(Cn3c(=O)cc(C)c4c(C)nn(-c5ccc(C)cc5)c43)c(C)o2)cc1,inactive: 94%
21,COc1ccc(CCNC(=O)CCn2c(=O)c3ccccc3n(CC(=O)Nc3ccc(C)cc3C)c2=O)cc1OC,inactive: 103%
22,O=C(Nc1ccccc1)C1CCN(S(=O)(=O)c2ccc3[nH]c4c(c3c2)CCCCC4)CC1,inactive: 90%
23,COc1ccccc1NC(=O)C1=C(C)Nc2nc(SCc3ccccc3)nn2C1c1cccnc1 (stereo not given),inactive: 61%

row,SMILES,survival
1,CCOC(=O)Cn1c(=O)oc2cc(S(=O)(=O)N3CCN(c4ccc(C(C)=O)cc4)CC3)ccc21,inactive: 56%
2,CCOc1ccc(S(=O)(=O)c2cn(Cc3cc(C)ccc3C)c3ccc(OCC)cc3c2=O)cc1,inactive: 66%
3,COc1ccc(NC(=O)Cn2nc(C)c3nn(-c4ccc(Cl)cc4)c(C)c3c2=O)cc1,inactive: 85%
4,COc1cccc(Nc2nc3cc(Cl)c(Cl)cc3nc2-n2nc(C)cc2C)c1,inactive: 98%
5,Cc1nonc1C(=O)N/N=C/c1ccccc1,inactive: 105%
6,CCCCNC(=O)C1CCN(S(=O)(=O)c2ccc3c(ccn3CC)c2)CC1,inactive: 99%
7,Cc1cc(C)c(NC(=O)c2ncoc2-c2ccco2)c(C)c1,inactive: 87%
8,CC(C)NC(=O)C1CCN(C(=O)c2cc3sccc3n2Cc2ccc(Cl)cc2)CC1,inactive: 65%
9,O=C(Nc1ccc(Cl)cc1)N1CCN(c2ccc3nnc(-c4ccccc4)n3n2)CC1,inactive: 72%
10,O=c1[nH]c2cc3c(cc2cc1C(c1nnnn1C1CCCC1)N1CC=C(c2ccc(F)cc2)CC1)OCO3 (stereo not given),inactive: 79%
11,CCOc1ccc(NC(=O)c2cc3c(=O)n(Cc4cccs4)ccc3nc2C)cc1,inactive: 71%
12,O=C(C1CCC(Cn2c(=O)c3sccc3n(Cc3ccccc3F)c2=O)CC1)N1CCCCC1 (stereo not given),inactive: 131%
13,COc1ccccc1N(CC(=O)NCCSCc1cccc(Cl)c1)S(C)(=O)=O,inactive: 60%
14,CCCCC1(O)CC(C)(C)N([O])C(C)(C)C1,inactive: 95%
15,CCOC(=O)c1c(C)[nH]c(CCC(=O)Nc2ccc(Cl)cc2C)c1C,inactive: 90%
16,Cc1ccc(CNCc2c(C(=O)O)n(Cc3ccc(C)cc3)c3cc(C)ccc23)cc1,active: 2%
17,COC(=O)c1ccc(OC)c(CN2C(=O)N(c3ccc(C(C)=O)cc3)S(=O)(=O)c3ccccc32)c1,inactive: 85%
18,COc1ccc(-c2noc(CNS(=O)(=O)c3ccc(Br)cc3)n2)cc1OC,inactive: 70%
19,Brc1ccc(-c2cc(-c3ccccc3)no2)cc1,inactive: 74%
20,Cc1ccc(-c2noc(CN(C(=O)COc3cc(C)cc(C)c3C)C(C)C)n2)cc1,active: -3%
21,Cc1cc(C)cc(NC(=O)CSc2nnc(-c3cc4occc4n3C)n2-c2ccccc2C)c1,inactive: 85%
22,COc1ccc2c(CNC3CCCCCC3)c(C(=O)O)n(Cc3cccc(F)c3)c2c1,inactive: 86%
23,O=S(=O)(NCCc1csc2nc(-c3ccccc3)nn12)c1ccc(Cl)s1,inactive: 86%

row,SMILES,survival
1,CCN(CC)CCSc1nnc2c3cc(F)ccc3n(C)c2n1,inactive: 171%
2,CCN(CC)C(=O)c1cc(-c2ccc(Cl)cc2)on1,active: 36%
3,CCN(C(=O)Cn1nnc2sc(-c3ccccc3)cc2c1=O)c1cccc(C)c1,active: 50%
4,Cc1cc(NC(=O)CCNS(=O)(=O)c2ccc3c(c2)oc(=O)n3C)ccc1Br,inactive: 73%
5,CCC(C)NC(=O)CSc1nc2n[nH]c(C)c2c(=N)n1-c1ccc(C)c(Cl)c1 (stereo not given),inactive: 73%
6,CCSc1nnc(C2CCCN(CC(=O)N3CCN(c4ccccc4)CC3)C2)n1CC (stereo not given),inactive: 81%
7,O=c1oc2ccccc2cc1-c1nnc(-c2cccc(Cl)c2)o1,inactive: 108%
8,CCc1ccc2[nH]c(=O)c(C(c3nnnn3Cc3ccccc3)N(Cc3ccccc3)Cc3ccco3)cc2c1 (stereo not given),inactive: 101%
9,Cc1ccc2oc(=O)c3cnn(CC(=O)N4CCN(c5ccccc5)CC4)c3c2c1,inactive: 123%
10,COC(=O)c1c(NC(=O)CS(=O)(=O)c2ccc(C)cc2)sc2c1CCCC2,active: -4%
11,Cc1c(Cl)cccc1NC(=O)CCN1C(=O)c2ccccc2Sc2ncccc21,inactive: 78%
12,CC(=O)c1ccc(NC(=O)CN(C)S(=O)(=O)c2cccc3nsnc23)cc1,inactive: 98%
13,COc1ccccc1-c1cc2nc(C)c(CCC(=O)NCc3cccc(Cl)c3)c(C)n2n1,inactive: 80%
14,CCNc1ccc2c(Cl)cc(=O)oc2c1,inactive: 81%
15,CCCCn1c(C(C)NC(=O)c2ccccc2)nc2ccccc21 (stereo not given),inactive: 118%
16,CCOC(=O)C1CCCN(CCC(=O)Nc2cccc(C)c2)C1 (stereo not given),inactive: 86%
17,c1ccc(CN2CCC(NC3CCCC3)CC2)cc1,inactive: 96%
18,O=C(NCCC(c1ccccc1)c1ccco1)c1cccs1 (stereo not given),inactive: 65%
19,O=C(Nc1nnc(S(=O)(=O)N2CCCc3ccccc32)s1)c1ccccc1,active: 27%
20,COc1ccc(NC(=O)CCn2c(=O)c3cccn3c3ccccc32)c(OC)c1,active: 47%
21,Cc1ccc2c(=O)cc(C(=O)Nc3ccc(S(=O)(=O)N(C)Cc4ccccc4)cc3)oc2c1,inactive: 106%
